# According to the supplement of paper PMC4604168 (melanoma cell lines):
# This is one part of the list. Most values come without repeats; read them as rough.
# Test system: A375
# Assay: cell count relative to DMSO control; melanoma cells; higher = more viable cells
# Details: library dose: low library concentration; 72 h
# 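Further: cell number obtained by counting DAPI-stained nuclei in high-throughput microscope images with image analysis software, screen run in 1,536-well plates.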
row,SMILES,cell count
1,"O=C(/C=C/c1cccnc1)NCCCCC1CCN(C(=O)c2ccccc2)CC1 + CC(C)(C)c1cnc(CSc2cnc(NC(=O)C3CCNCC3)s2)o1 [SNS-032] (first compound 0.01 µM, partner dose 0.01 µM)",78.1%
2,"Cc1ccc(Nc2nccc(N(C)c3ccc4c(C)n(C)nc4c3)n2)cc1S(N)(=O)=O [Pazopanib] + Cn1cncc1[C@@](N)(c1ccc(Cl)cc1)c1ccc2c(c1)c(-c1cccc(Cl)c1)cc(=O)n2C [tipifarnib] (first compound 0.4 µM, partner dose 0.01 µM)",68.6%
3,"O=C(/C=C/c1cccnc1)NCCCCC1CCN(C(=O)c2ccccc2)CC1 + C[C@@H]1CCN(C(=O)CC#N)C[C@@H]1N(C)c1ncnc2[nH]ccc12 [CP690550] (first compound 0.01 µM, partner dose 1 µM)",97.9%
4,"Cc1ccc(Nc2nccc(N(C)c3ccc4c(C)n(C)nc4c3)n2)cc1S(N)(=O)=O [Pazopanib] + COCC[n+]1c2c(n(Cc3cnccn3)c1C)C(=O)c1ccccc1C2=O [YM155] (first compound 0.4 µM, partner dose 0.0004 µM)",81.3%
5,"Cc1ccc(Nc2nccc(N(C)c3ccc4c(C)n(C)nc4c3)n2)cc1S(N)(=O)=O [Pazopanib] + CN(NC(=O)CC(=O)NN(C)C(=S)c1ccccc1)C(=S)c1ccccc1 [STA4783] (first compound 0.4 µM, partner dose 0.006 µM)",32.7%
6,"CC1(C)CCC(c2ccc(Cl)cc2)=C(CN2CCN(c3ccc(C(=O)NS(=O)(=O)c4ccc(N[C@H](CCN5CCOCC5)CSc5ccccc5)c(S(=O)(=O)C(F)(F)F)c4)cc3)CC2)C1 + C=C(c1ccc(C(=O)O)cc1)c1cc2c(cc1C)C(C)(C)CCC2(C)C [Bexarotene] (first compound 0.4 µM, partner dose 2 µM)",75.7%
7,"Cc1ccc(Nc2nccc(N(C)c3ccc4c(C)n(C)nc4c3)n2)cc1S(N)(=O)=O [Pazopanib] + Nc1ccn([C@@H]2O[C@H](CO)[C@@H](O)C2(F)F)c(=O)n1 [gemcitabine] (first compound 0.4 µM, partner dose 0.0004 µM)",105%
8,"Cc1ccc(Nc2nccc(N(C)c3ccc4c(C)n(C)nc4c3)n2)cc1S(N)(=O)=O [Pazopanib] + Clc1ccc(Nc2nnc(Cc3ccncc3)c3ccccc23)cc1 [vatalanib] (first compound 0.4 µM, partner dose 2 µM)",82.4%
9,"O=C(/C=C/c1cccnc1)NCCCCC1CCN(C(=O)c2ccccc2)CC1 + CC(C)C[C@H](NC(=O)[C@H](Cc1ccccc1)NC(=O)c1cnccn1)B(O)O [Bortezomib] (first compound 0.01 µM, partner dose 0.001 µM)",79.3%
10,"CC1(C)CCC(c2ccc(Cl)cc2)=C(CN2CCN(c3ccc(C(=O)NS(=O)(=O)c4ccc(N[C@H](CCN5CCOCC5)CSc5ccccc5)c(S(=O)(=O)C(F)(F)F)c4)cc3)CC2)C1 + O=C(O)c1ccc2c(c1)nc(Nc1cccc(Cl)c1)c1ccncc12 [CX4945] (first compound 0.4 µM, partner dose 0.4 µM)",75%
11,"O=C(/C=C/c1cccnc1)NCCCCC1CCN(C(=O)c2ccccc2)CC1 + Cn1c(Nc2ccc(C(F)(F)F)cc2)nc2cc(Oc3ccnc(-c4ncc(C(F)(F)F)[nH]4)c3)ccc21 [CHIR265] (first compound 0.01 µM, partner dose 0.08 µM)",64.6%
12,"CC1(C)CCC(c2ccc(Cl)cc2)=C(CN2CCN(c3ccc(C(=O)NS(=O)(=O)c4ccc(N[C@H](CCN5CCOCC5)CSc5ccccc5)c(S(=O)(=O)C(F)(F)F)c4)cc3)CC2)C1 + CO[C@@H]1[C@H](N(C)C(=O)c2ccccc2)C[C@H]2O[C@]1(C)n1c3ccccc3c3c4c(c5c6ccccc6n2c5c31)C(=O)NC4 [Midostaurin] (first compound 0.4 µM, partner dose 0.08 µM)",83.4%
13,"O=C(/C=C/c1cccnc1)NCCCCC1CCN(C(=O)c2ccccc2)CC1 + C=C(c1ccc(C(=O)O)cc1)c1cc2c(cc1C)C(C)(C)CCC2(C)C [Bexarotene] (first compound 0.01 µM, partner dose 2 µM)",105%
